# Test results published in the supplement of paper PMC8728848.
# Some of the results follow.
# Assays:
# Assay in all cases: glycan array binding signal (z-score within array); higher = stronger binding
# Conditions in all cases: glycan notation: IUPAC condensed, linker removed
# [1] = target: Fuc(a1-2)Gal6S(b1-3)GlcNAc
# Outline: (§1)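 Glycan array binding is given as a within-array Z-score, which can be read as non-binding when negative. The arrays, 3228 of them, came from the Consortium for Functional Glycomics database and were retained only where the protein sequence was available. Z-scores were averaged across arrays of the same protein sequence at different concentrations or buffers and across linkers.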
# [2] = target: Fuc(a1-2)Gal6S(b1-3)GlcNAc6S
# Outline: as §1
# [3] = target: Fuc(a1-2)Gal6S(b1-4)Glc
# Outline: as §1
# [4] = target: Fuc(a1-2)Gal6S(b1-4)Glc6S
# Outline: as §1
# [5] = target: Fuc(a1-2)[Gal(a1-3)]Gal
# Outline: as §1
# [6] = target: Fuc(a1-2)[Gal(a1-3)]Gal(b1-3)GalNAc
# Outline: as §1
# [7] = target: Fuc(a1-2)[Gal(a1-3)]Gal(b1-3)GalNAc(b1-3)Gal(a1-4)Gal(b1-4)Glc
# Outline: as §1
# [8] = target: Fuc(a1-2)[Gal(a1-3)]Gal(b1-3)GlcNAc
# Outline: as §1
# [9] = target: Fuc(a1-2)[Gal(a1-3)]Gal(b1-3)GlcNAc(b1-2)Man(a1-3)[Fuc(a1-2)[Gal(a1-3)]Gal(b1-3)GlcNAc(b1-2)Man(a1-6)]Man(b1-4)GlcNAc(b1-4)GlcNAc
# Outline: as §1
# [10] = target: Fuc(a1-2)[Gal(a1-3)]Gal(b1-3)GlcNAc(b1-2)Man(a1-3)[Fuc(a1-2)[Gal(a1-3)]Gal(b1-3)GlcNAc(b1-2)Man(a1-6)]Man(b1-4)GlcNAc(b1-4)[Fuc(a1-6)]GlcNAc
# Outline: as §1
# [11] = target: Fuc(a1-2)[Gal(a1-3)]Gal(b1-3)GlcNAc(b1-3)GalNAc
# Outline: as §1
# [12] = target: Fuc(a1-2)[Gal(a1-3)]Gal(b1-3)GlcNAc(b1-6)GalNAc
# Outline: as §1
# [13] = target: Fuc(a1-2)[Gal(a1-3)]Gal(b1-4)Glc
# Outline: as §1
# [14] = target: Fuc(a1-2)[Gal(a1-3)]Gal(b1-4)GlcNAc
# Outline: as §1
# [15] = target: Fuc(a1-2)[Gal(a1-3)]Gal(b1-4)GlcNAc(b1-2)Man
# Outline: as §1
# [16] = target: Fuc(a1-2)[Gal(a1-3)]Gal(b1-4)GlcNAc(b1-2)Man(a1-3)[Fuc(a1-2)[Gal(a1-3)]Gal(b1-4)GlcNAc(b1-2)Man(a1-6)]Man(b1-4)GlcNAc(b1-4)GlcNAc
# Outline: as §1
# [17] = target: Fuc(a1-2)[Gal(a1-3)]Gal(b1-4)GlcNAc(b1-2)Man(a1-3)[Fuc(a1-2)[Gal(a1-3)]Gal(b1-4)GlcNAc(b1-2)Man(a1-6)]Man(b1-4)GlcNAc(b1-4)[Fuc(a1-6)]GlcNAc
# Outline: as §1
# [18] = target: Fuc(a1-2)[Gal(a1-3)]Gal(b1-4)GlcNAc(b1-3)GalNAc
# Outline: as §1
# [19] = target: Fuc(a1-2)[Gal(a1-3)]Gal(b1-4)GlcNAc(b1-3)[Fuc(a1-2)[Gal(a1-3)]Gal(b1-4)GlcNAc(b1-6)]GalNAc
# Outline: as §1
# [20] = target: Fuc(a1-2)[Gal(a1-3)]Gal(b1-4)GlcNAc(b1-6)GalNAc
# Outline: as §1
# [21] = target: Fuc(a1-2)[Gal(a1-3)]Gal(b1-4)[Fuc(a1-3)]Glc
# Outline: as §1
# [22] = target: Fuc(a1-2)[Gal(a1-3)]Gal(b1-4)[Fuc(a1-3)]GlcNAc
# Outline: as §1
# [23] = target: Fuc(a1-2)[Gal(a1-3)]Gal(b1-4)[Fuc(a1-3)]GlcNAc(b1-3)GalNAc
# Outline: as §1
# [24] = target: Fuc(a1-2)[Gal(a1-4)]Gal(b1-4)GlcNAc
# Outline: as §1
# [25] = target: Fuc(a1-2)[GalNAc(a1-3)]Gal
# Outline: as §1
# [26] = target: Fuc(a1-2)[GalNAc(a1-3)]Gal(b1-3)GalNAc(a1-3)[Fuc(a1-2)]Gal(b1-4)GlcNAc
# Outline: as §1
# [27] = target: Fuc(a1-2)[GalNAc(a1-3)]Gal(b1-3)GalNAc(b1-3)Gal(a1-4)Gal(b1-4)Glc
# Outline: as §1
# [28] = target: Fuc(a1-2)[GalNAc(a1-3)]Gal(b1-3)GlcNAc
# Outline: as §1
# [29] = target: Fuc(a1-2)[GalNAc(a1-3)]Gal(b1-3)GlcNAc(b1-2)Man(a1-3)[Fuc(a1-2)[GalNAc(a1-3)]Gal(b1-3)GlcNAc(b1-2)Man(a1-6)]Man(b1-4)GlcNAc(b1-4)GlcNAc
# Outline: as §1
# [30] = target: Fuc(a1-2)[GalNAc(a1-3)]Gal(b1-3)GlcNAc(b1-2)Man(a1-3)[Fuc(a1-2)[GalNAc(a1-3)]Gal(b1-3)GlcNAc(b1-2)Man(a1-6)]Man(b1-4)GlcNAc(b1-4)[Fuc(a1-6)]GlcNAc
# Outline: as §1
# [31] = target: Fuc(a1-2)[GalNAc(a1-3)]Gal(b1-3)GlcNAc(b1-3)GalNAc
# Outline: as §1
# [32] = target: Fuc(a1-2)[GalNAc(a1-3)]Gal(b1-3)GlcNAc(b1-6)GalNAc
# Outline: as §1
# [33] = target: Fuc(a1-2)[GalNAc(a1-3)]Gal(b1-4)Glc
# Outline: as §1
# [34] = target: Fuc(a1-2)[GalNAc(a1-3)]Gal(b1-4)GlcNAc
# Outline: as §1
# [35] = target: Fuc(a1-2)[GalNAc(a1-3)]Gal(b1-4)GlcNAc(b1-2)Man
# Outline: as §1
# [36] = target: Fuc(a1-2)[GalNAc(a1-3)]Gal(b1-4)GlcNAc(b1-2)Man(a1-3)[Fuc(a1-2)[GalNAc(a1-3)]Gal(b1-4)GlcNAc(b1-2)Man(a1-6)]Man(b1-4)GlcNAc(b1-4)GlcNAc
# Outline: as §1
# [37] = target: Fuc(a1-2)[GalNAc(a1-3)]Gal(b1-4)GlcNAc(b1-2)Man(a1-3)[Fuc(a1-2)[GalNAc(a1-3)]Gal(b1-4)GlcNAc(b1-2)Man(a1-6)]Man(b1-4)GlcNAc(b1-4)[Fuc(a1-6)]GlcNAc
# Outline: as §1
# [38] = target: Fuc(a1-2)[GalNAc(a1-3)]Gal(b1-4)GlcNAc(b1-3)Gal(b1-4)GlcNAc
# Outline: as §1
# [39] = target: Fuc(a1-2)[GalNAc(a1-3)]Gal(b1-4)GlcNAc(b1-3)Gal(b1-4)GlcNAc(b1-3)Gal(b1-4)GlcNAc
# Outline: as §1
# [40] = target: Fuc(a1-2)[GalNAc(a1-3)]Gal(b1-4)GlcNAc(b1-3)GalNAc
# Outline: as §1
# [41] = target: Fuc(a1-2)[GalNAc(a1-3)]Gal(b1-4)GlcNAc(b1-3)[Fuc(a1-2)[GalNAc(a1-3)]Gal(b1-4)GlcNAc(b1-6)]GalNAc
# Outline: as §1
# [42] = target: Fuc(a1-2)[GalNAc(a1-3)]Gal(b1-4)GlcNAc(b1-6)GalNAc
# Outline: as §1
# [43] = target: Fuc(a1-2)[GalNAc(a1-3)]Gal(b1-4)[Fuc(a1-3)]GlcNAc
# Outline: as §1
# [44] = target: Fuc(a1-2)[GalNAc(a1-3)]Gal(b1-4)[Fuc(a1-3)]GlcNAc(b1-3)GalNAc
# Outline: as §1
# [45] = target: Fuc(a1-2)[GalNAc(a1-4)]Gal(b1-4)GlcNAc
# Outline: as §1
binder,measurement,setting,value
rMpL (Macrolepiota procera) (protein) MSTQVSSGRTYKITNVIAGTVIDLSGEDNKSIIGYPYHSGKNQQWTFNWTGKAWTLRSASSGSYLGIEGTPAGGTRLVAVNDPFEWHIWRDEANENAFRIFVPFTNYNLDLSGYGDTTPGTPVQLWWTWEGLHQTWTIDRP,glycan array binding signal (z-score),[1],-0.389
same,glycan array binding signal (z-score),[2],-0.263
same,glycan array binding signal (z-score),[3],-0.334
same,glycan array binding signal (z-score),[4],-0.428
same,glycan array binding signal (z-score),[5],-0.36
same,glycan array binding signal (z-score),[6],-0.247
same,glycan array binding signal (z-score),[7],-0.359
same,glycan array binding signal (z-score),[8],-0.235
same,glycan array binding signal (z-score),[9],-0.259
same,glycan array binding signal (z-score),[10],-0.091
same,glycan array binding signal (z-score),[11],-0.18
same,glycan array binding signal (z-score),[12],-0.297
same,glycan array binding signal (z-score),[13],-0.255
same,glycan array binding signal (z-score),[14],-0.352
same,glycan array binding signal (z-score),[15],-0.289
same,glycan array binding signal (z-score),[16],-0.257
same,glycan array binding signal (z-score),[17],-0.062
same,glycan array binding signal (z-score),[18],-0.242
same,glycan array binding signal (z-score),[19],-0.128
same,glycan array binding signal (z-score),[20],-0.314
same,glycan array binding signal (z-score),[21],-0.207
same,glycan array binding signal (z-score),[22],-0.216
same,glycan array binding signal (z-score),[23],-0.313
same,glycan array binding signal (z-score),[24],-0.237
same,glycan array binding signal (z-score),[25],-0.317
same,glycan array binding signal (z-score),[26],-0.307
same,glycan array binding signal (z-score),[27],-0.357
same,glycan array binding signal (z-score),[28],-0.255
same,glycan array binding signal (z-score),[29],-0.361
same,glycan array binding signal (z-score),[30],0.394
same,glycan array binding signal (z-score),[31],-0.124
same,glycan array binding signal (z-score),[32],-0.353
same,glycan array binding signal (z-score),[33],-0.324
same,glycan array binding signal (z-score),[34],-0.328
same,glycan array binding signal (z-score),[35],-0.408
same,glycan array binding signal (z-score),[36],-0.308
same,glycan array binding signal (z-score),[37],-0.044
same,glycan array binding signal (z-score),[38],-0.358
same,glycan array binding signal (z-score),[39],0.045
same,glycan array binding signal (z-score),[40],-0.287
same,glycan array binding signal (z-score),[41],-0.26
same,glycan array binding signal (z-score),[42],-0.414
same,glycan array binding signal (z-score),[43],-0.161
same,glycan array binding signal (z-score),[44],-0.128
same,glycan array binding signal (z-score),[45],-0.866
